Assay results published in PMC4336329 (PLoS ONE, 2015).
In all, about 310,000 compounds went through this assay and about 2,200 (0.71%) showed an effect of 50% or more. The effect is printed as a negative number. The list shows a part of the results.

These compounds were tested against human ether-à-go-go-related gene (hERG) potassium channel (human, UniProt Q12809) (assay: primary screen, population patch clamp on CHO cells stably expressing hERG).
human ether-à-go-go-related gene (hERG) potassium channel, sequence (Q12809 whole entry, looked up): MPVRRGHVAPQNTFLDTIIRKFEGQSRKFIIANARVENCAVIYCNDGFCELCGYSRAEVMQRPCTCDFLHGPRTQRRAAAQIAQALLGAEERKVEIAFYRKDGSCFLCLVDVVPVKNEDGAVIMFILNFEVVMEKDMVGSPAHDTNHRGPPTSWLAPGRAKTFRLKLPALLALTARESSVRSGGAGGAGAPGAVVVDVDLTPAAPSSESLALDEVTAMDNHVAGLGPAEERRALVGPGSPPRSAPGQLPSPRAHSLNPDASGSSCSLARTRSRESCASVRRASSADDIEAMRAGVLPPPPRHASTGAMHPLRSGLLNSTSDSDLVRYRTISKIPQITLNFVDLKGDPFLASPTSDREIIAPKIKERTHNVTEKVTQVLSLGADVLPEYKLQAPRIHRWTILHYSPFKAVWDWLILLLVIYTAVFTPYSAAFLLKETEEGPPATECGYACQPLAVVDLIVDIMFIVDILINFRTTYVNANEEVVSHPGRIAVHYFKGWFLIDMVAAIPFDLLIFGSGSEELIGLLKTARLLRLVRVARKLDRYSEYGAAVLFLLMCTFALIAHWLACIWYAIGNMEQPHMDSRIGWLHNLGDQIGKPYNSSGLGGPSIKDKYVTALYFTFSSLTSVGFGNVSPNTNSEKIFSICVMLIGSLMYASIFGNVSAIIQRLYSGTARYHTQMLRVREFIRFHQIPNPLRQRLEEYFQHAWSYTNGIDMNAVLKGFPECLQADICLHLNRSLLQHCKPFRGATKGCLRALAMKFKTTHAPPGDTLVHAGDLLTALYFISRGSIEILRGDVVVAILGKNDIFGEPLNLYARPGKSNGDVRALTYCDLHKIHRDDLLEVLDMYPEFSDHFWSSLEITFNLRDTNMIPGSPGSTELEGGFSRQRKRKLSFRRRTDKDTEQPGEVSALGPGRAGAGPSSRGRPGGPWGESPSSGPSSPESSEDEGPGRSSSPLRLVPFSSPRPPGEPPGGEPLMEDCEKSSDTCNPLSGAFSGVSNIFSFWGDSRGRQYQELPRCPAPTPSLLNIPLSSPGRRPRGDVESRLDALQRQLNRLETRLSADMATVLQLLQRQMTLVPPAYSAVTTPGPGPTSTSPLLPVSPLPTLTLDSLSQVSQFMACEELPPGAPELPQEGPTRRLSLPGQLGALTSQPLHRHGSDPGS
For O=C(Nc1ccccc1)c1cc(-c2ccccc2Cl)no1, the “hERG current change (%, negative = inhibition) at 1uM” value was -7.92%. With CCCCn1c(CCC(=O)O)ccc1-c1cccs1 the “hERG current change (%, negative = inhibition) at 1uM” value was 12.9%. In the case of COc1ccccc1N=Nc1ccc(O)c2ncccc12, the “hERG current change (%, negative = inhibition) at 1uM” value is reported as 14.3%. With Cc1cc(C)[n+](C)n1CC(O)Cn1c2ccccc2c2ccccc21.[I-] (stereo not drawn) the “hERG current change (%, negative = inhibition) at 1uM” value was 7.98%. In the case of COc1ccc(-c2noc(CCC(=O)NCCc3ccccc3)n2)cc1, the “hERG current change (%, negative = inhibition) at 1uM” value is reported as 17.7%. With COc1ccc(C2/C(=C(/O)c3ccc(C)cc3)C(=O)C(=O)N2CCCN2CCOCC2)cc1 (stereo not drawn) the “hERG current change (%, negative = inhibition) at 1uM” value was 22.3%. With CCc1nc(Nc2ccc(F)cc2)c2oc3ccccc3c2n1.Cl the “hERG current change (%, negative = inhibition) at 1uM” value was 9.34%. With COc1ccc(OC)c(NC(=O)CSc2nnc(CNC(=O)c3cc(OC)c(OC)c(OC)c3)o2)c1 the “hERG current change (%, negative = inhibition) at 1uM” value was 20.3%. For O=C(Nc1c(-c2ccccc2)nc2ccccn12)c1ccco1, the “hERG current change (%, negative = inhibition) at 1uM” value was 0.792%. In the case of O=C(CCc1c[nH]c2ccccc12)NCC1CCCO1 (stereo not drawn), the “hERG current change (%, negative = inhibition) at 1uM” value is reported as 5.78%. In the case of COc1ccc(/C=N/NC(=O)C2(C)NC(C)(C)Cc3ccccc32)cc1 (stereo not drawn), the “hERG current change (%, negative = inhibition) at 1uM” value is reported as 0.973%. For O=C(Nc1ccc(Oc2ccc3c(c2)C(=O)N(c2ccc(O)cc2)C3=O)cc1)c1cccs1, the “hERG current change (%, negative = inhibition) at 1uM” value was 5.17%. CC(=O)N1CCc2cc(S(=O)(=O)NCCCN3CCC(C)CC3)ccc21 was tested, and the “hERG current change (%, negative = inhibition) at 1uM” value was 26.9%. With COc1ccc(C(=O)NCC(=O)N2CCN(C(=O)c3ccco3)CC2)cc1 the “hERG current change (%, negative = inhibition) at 1uM” value was -1.13%. With CC(=O)N1c2ccc(S(=O)(=O)NCCC(=O)Nc3ccc(F)cc3)cc2CC1C (stereo not drawn) the “hERG current change (%, negative = inhibition) at 1uM” value was 5.82%. In the case of O=C(O)c1cccc(OCc2ccccc2Cl)c1, the “hERG current change (%, negative = inhibition) at 1uM” value is reported as 0.845%. With COC(=O)C1=C(CSCc2ccco2)NC(=O)NC1c1cc(C)ccc1C (stereo not drawn) the “hERG current change (%, negative = inhibition) at 1uM” value was -8.26%. With O=C(NCc1ccc(F)cc1)c1cccnc1C(=O)O the “hERG current change (%, negative = inhibition) at 1uM” value was 15.7%. In the case of Cc1sc2ncnc(N(C)C3CCCCC3)c2c1C, the “hERG current change (%, negative = inhibition) at 1uM” value is reported as 13.8%. In the case of CCOC(=O)Nc1cc(C(=O)OCC)c(C)nc1C, the “hERG current change (%, negative = inhibition) at 1uM” value is reported as 1.36%. For CCN(CC(=O)NCc1cccs1)S(=O)(=O)c1ccc(F)cc1, the “hERG current change (%, negative = inhibition) at 1uM” value was -24.1%. With Cc1onc(-c2c(Cl)cccc2Cl)c1C(=O)N1CCN(c2ccccc2F)CC1 the “hERG current change (%, negative = inhibition) at 1uM” value was 15.9%. In the case of Cc1cc(C)nc(NS(=O)(=O)c2ccc(NS(=O)(=O)c3ccsc3)cc2)n1, the “hERG current change (%, negative = inhibition) at 1uM” value is reported as 6.01%. For CC(C)CN1CCC(=O)N([C@H](CSc2ccc(Br)cc2)Cc2ccccc2)CC1, the “hERG current change (%, negative = inhibition) at 1uM” value was -0.18%.
